# About 230 (0.21%) of roughly 110,000 compounds showed an effect of 50% or more. The list shows a part of the results.
# Target: DPAP1 (Plasmodium falciparum, UniProt Q8IIJ9)
# Test: primary screen, percent inhibition; read by cleavage of a fluorogenic dipeptide substrate; higher = more effect of the substance
# Parameters: species or system P. falciparum D10 trophozoite lysates; single well
# 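Further: 30 min substrate incubation versus DMSO and 10 µM JCP410 controls.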
# Sequence of DPAP1 (Q8IIJ9 whole entry, looked up): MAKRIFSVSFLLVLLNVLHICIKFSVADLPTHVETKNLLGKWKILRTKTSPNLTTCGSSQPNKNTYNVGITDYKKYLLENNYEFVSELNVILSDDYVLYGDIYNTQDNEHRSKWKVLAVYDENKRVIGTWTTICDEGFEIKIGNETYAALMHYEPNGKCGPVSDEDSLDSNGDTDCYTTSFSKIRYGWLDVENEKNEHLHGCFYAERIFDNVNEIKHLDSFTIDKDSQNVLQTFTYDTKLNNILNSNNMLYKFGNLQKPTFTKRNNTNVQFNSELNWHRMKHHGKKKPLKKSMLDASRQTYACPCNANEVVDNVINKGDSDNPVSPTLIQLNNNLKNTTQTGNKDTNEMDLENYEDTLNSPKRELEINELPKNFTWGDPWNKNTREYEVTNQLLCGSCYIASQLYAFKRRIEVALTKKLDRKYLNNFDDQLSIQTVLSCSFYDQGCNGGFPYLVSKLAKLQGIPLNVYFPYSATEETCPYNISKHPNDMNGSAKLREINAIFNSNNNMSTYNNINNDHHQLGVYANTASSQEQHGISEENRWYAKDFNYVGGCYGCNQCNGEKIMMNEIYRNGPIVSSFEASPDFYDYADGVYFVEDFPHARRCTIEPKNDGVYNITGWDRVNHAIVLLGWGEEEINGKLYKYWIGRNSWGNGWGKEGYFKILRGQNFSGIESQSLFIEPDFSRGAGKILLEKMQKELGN
row,SMILES,% Inhibition @ 10 uM
1,CSc1ccc(CN(C)C2CCN(C)CC2)cc1,3.1%
2,COc1ccc2c(c1)c1nc(SCc3cc(=O)n4ccccc4n3)n(C)c(=O)c1n2C,-1.37%
3,CN(C)CCN(Cc1ccccc1)CC(c1ccccc1)c1ccccc1,-2.95%
4,COc1ccc(OC)c(C2C=C(c3ccc(C(C)C)cc3)Nc3nnnn32)c1 (stereo not shown),1.86%
5,CCO/C(O)=C1\C(C)=NC2=C(C(=O)CC(C)(C)C2)C1c1ccc(C)o1 (stereo not shown),-0.736%
6,CCN1C(=S)NC2CC1(C)Oc1c(O)cc(C(C)(C)C)cc12 (stereo not shown),-6.06%
7,Cc1cc2ncn(/N=C/c3cccnc3)c2cc1C,0.343%
8,COc1ccc(-c2onc(C)c2C)cc1S(=O)(=O)NCCc1ccc(S(N)(=O)=O)cc1,1.39%
9,NC(=O)C1Cc2cc(Cl)ccc2Sc2ccccc21 (stereo not shown),-6.37%
10,O=C(O)C1CCCCC1C(=O)NCc1cccnc1 (stereo not shown),-5.1%
11,O=C1c2ccccc2C(=O)N1CC(=O)n1c2c(c3ccccc31)CCCC2,-2.98%
12,CC(CCc1ccccc1)Nc1nc(Cl)nc(NCCN2CCOCC2)n1 (stereo not shown),-0.597%
13,CCc1s/c(=N\C(C)=O)n(C)c1-c1ccc(OC)cc1,2.03%
14,Cc1ccc(C(=O)C2=C(O)C(=O)N(c3nccs3)C2c2cccc(OCCC(C)C)c2)o1 (stereo not shown),0.214%
15,CCCCCC(NC(C)=O)C(=O)NC(=O)NCc1ccccc1 (stereo not shown),0.565%
16,COc1ccc(C(=O)Nc2ccc(OCc3ccccc3)cc2)cc1,6.24%
17,COc1ccc(CN2CCC(O)CC2)c(OC)c1,-2.7%
18,CCCNC(=O)c1cc(Cl)ccc1NC(=O)c1ccco1,-6.83%
19,Cc1cc(OCC(=O)Nc2ccc(S(=O)(=O)N3CCCCC3)cc2)cc(C)c1Cl,-2.3%
20,COc1ccc(/C=C2/SC(=O)N(CC(=O)NCCO)C2=O)cc1OC,1.52%
21,CN(C)CCSc1nc2ccccc2[nH]1,-5.28%
22,CCOC(=O)C1C(=O)Oc2ccccc2C1=O (stereo not shown),7.99%

row,SMILES,% Inhibition @ 10 uM
1,N#CCc1ccc(NS(=O)(=O)c2ccc3c(c2)OCCO3)cc1,-9.94%
2,CCOc1ccccc1/C=C1/SC(=O)NC1=O,6.42%
3,CCCN1C(=O)c2oc3cc(C)cc(C)c3c(=O)c2C1c1ccc(C)cc1 (stereo not shown),0.00706%
4,O=Cc1ccc(OC/C=C/COc2ccc(C=O)cc2)cc1,1.67%
5,CCC[C@H](NC(=O)C1(NC(=O)N2CCN(C(C)(C)C)CC2)CCCCC1)C(=O)c1nnc(CC)o1,-4.72%
6,CCN(CC)CCCNC(=O)c1cccc(C)c1,-3.65%
7,COc1cc(NC(=O)[C@@H]2C[C@@H]2c2ccccc2)c(OC)cc1Cl,2.23%
8,CC1(C)Cc2c(sc3nc(SCc4ccc5c(c4)OCO5)nc(N)c23)CO1,-2.34%
9,O=C(CSc1nnc(-c2ccc3c(c2)OCCO3)o1)N1CCCC1,7.64%
10,CCOC(=O)c1cnc2c(C)cc(Cl)cc2c1Cl,2.17%
11,COC(=O)c1nc2n(n1)C(c1ccc(Cl)cc1)C=C(c1ccc(Cl)cc1)N2 (stereo not shown),-3.37%
12,O=c1c(C2Nc3ccccc3N=C3CC(c4ccccc4)CC(O)=C32)coc2ccccc12 (stereo not shown),0.751%
13,O=S(=O)(c1cccs1)n1ccnc1,-1.28%
14,CCN(C(=O)c1sc(N)c(C#N)c1C)C1CCCCC1,-1.2%
15,CCn1c2ccccc2c2cc(CN3CCN(c4cccc(Cl)c4)CC3)ccc21,5.42%
16,COc1ccc2cc3cc(C(=O)NCC4COc5ccccc5O4)sc3nc2c1 (stereo not shown),5.11%
17,COc1cc(CN2CCN(c3cccc(C)c3C)CC2)cc(OC)c1,55.4%
18,Cc1ccc(C)c(NC(=O)CN(CCc2ccccc2)S(C)(=O)=O)c1,-0.0619%
19,CCOC(=O)C1=C(C)OC(N)=C(C#N)C1c1ccc(Cl)c(Cl)c1 (stereo not shown),-3.13%
20,C=CCN1C(=O)NC(=O)/C(=C\c2cccc([N+](=O)[O-])c2)C1=O,-5.65%
21,O=[N+]([O-])c1ccc(-c2n[nH]c(-c3ccccc3)n2)cc1,-4.21%
22,Sc1nnc(CSCc2ccccc2Cl)n1-c1ccccc1,2.18%

row,SMILES,% Inhibition @ 10 uM
1,CCCCNC(=O)NC1C(NC(=O)NCCCC)N(C)C(=O)N1C (stereo not shown),0.375%
2,CC1(C)Cc2c(sc3nc(SCC(N)=O)n(Cc4ccccc4)c(=O)c23)CO1,-3.9%
3,COc1ccc(OC)c(CNC(=O)c2c(N)nc3sc4c(c3c2C(F)(F)F)CCC4)c1,1.76%
4,CCCn1c(-c2ccccc2)cn2c3c(=O)n(C)c(=O)n(C)c3nc12,0.983%
5,O=C(COc1ccc(Cl)cc1)NCc1nnc(SCC(=O)NCc2ccco2)o1,0.163%
6,O=C(c1cnn2c(C(F)(F)F)cc(-c3ccc(Br)cc3)nc12)N1CCCC1,0.709%
7,Cc1cc(Cl)ccc1OCc1cc(C2C(C#N)=C(N)OC3=C2C(=O)CCC3)sc1C (stereo not shown),-0.25%
8,O=C1CC(c2ccc(F)cc2)N2CCNC2=C1C(=O)Nc1ccccc1 (stereo not shown),6.69%
9,CCCN1CCC(N2CCCCC2C(=O)OCC)CC1 (stereo not shown),-1.81%
10,COc1cc(OC)c(C2C3=C(O)CCCC3=NC(C)=C2C(=O)Nc2ccc(C)cn2)cc1OC (stereo not shown),-0.968%
11,COc1cccc(C2=NN(C(C)=O)C(c3cc4ccccc4nc3Cl)C2)c1OC (stereo not shown),1.97%
12,CCOc1cc2c(cc1OC)C(c1ccc(CC)cc1)NCC2 (stereo not shown),-6.43%
13,CCN1CCC(C#N)(NC(=O)[C@H](Cc2c(F)cccc2F)NC(=O)c2ccc(-c3ccccc3Cl)c(Cl)c2)CC1,-3.48%
14,Cc1ccc2nc(NC3=NC(=O)C(CC(=O)O)N3)nc(C)c2c1 (stereo not shown),-3.33%
15,COc1ccc(C(=O)NCc2cn3ccsc3n2)cc1OC,-4.24%
16,CCc1ccccc1NS(=O)(=O)c1ccc(F)cc1,0.526%
17,Cc1nc2sc3c(O)nnnc3c2c(C)c1Br,0.895%
18,O=c1oc(-c2ccccc2Br)nc2ccccc12,-2.28%
19,CCN(CC)C(=O)CN1C(=O)C2CC=C(Cl)CC2C1=O (stereo not shown),0.674%
20,CCOC(=O)c1cnc(-c2ccccc2)nc1N(C)C,1.04%
